In PMC6919601, “Identification of Plasmodium dipeptidyl aminopeptidase allosteric inhibitors by high throughput screening” (PLoS ONE, 2019):
Where “and” joins values, the source holds several entries; their conditions need not be identical. Equal entries are not always repeated. The campaign covered roughly 110,000 compounds. About 230 (0.21%) showed an effect of 50% or more. The list shows a part of the results.

Biological target: DPAP1 (Plasmodium falciparum, UniProt Q8IIJ9)
Experiment: primary screen, percent inhibition; read by cleavage of a fluorogenic dipeptide substrate; higher = more effect of the substance
Parameters: species or system P. falciparum D10 trophozoite lysates; single well
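Note: 30 min substrate incubation versus DMSO and 10 µM JCP410 controls.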

Sequence of DPAP1 (Q8IIJ9 whole entry, looked up): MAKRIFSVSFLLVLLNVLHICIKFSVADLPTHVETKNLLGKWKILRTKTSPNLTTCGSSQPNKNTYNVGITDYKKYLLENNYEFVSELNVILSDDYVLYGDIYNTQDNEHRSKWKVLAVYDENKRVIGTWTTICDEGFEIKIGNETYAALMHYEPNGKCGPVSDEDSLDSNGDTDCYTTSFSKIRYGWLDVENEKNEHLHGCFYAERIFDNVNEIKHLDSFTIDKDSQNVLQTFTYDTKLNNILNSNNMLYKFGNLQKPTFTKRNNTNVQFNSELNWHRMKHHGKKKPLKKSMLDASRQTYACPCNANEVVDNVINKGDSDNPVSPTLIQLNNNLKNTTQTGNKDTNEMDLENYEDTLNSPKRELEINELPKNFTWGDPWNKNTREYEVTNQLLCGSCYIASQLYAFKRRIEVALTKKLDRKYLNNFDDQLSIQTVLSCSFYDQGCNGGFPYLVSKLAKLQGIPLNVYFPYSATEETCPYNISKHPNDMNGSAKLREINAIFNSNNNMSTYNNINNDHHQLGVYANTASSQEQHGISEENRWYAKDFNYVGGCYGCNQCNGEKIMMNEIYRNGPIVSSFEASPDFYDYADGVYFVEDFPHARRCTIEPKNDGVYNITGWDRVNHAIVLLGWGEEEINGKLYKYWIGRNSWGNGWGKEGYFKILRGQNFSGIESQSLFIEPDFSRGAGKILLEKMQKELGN

Structure (SMILES) | % Inhibition @ 10 uM
CN1CCN(C(=O)NC23CC4CC(CC(C4)C2)C3)CC1 | 2.92%
CCOc1ccccc1N1CCN(Cc2ccc(OC(F)(F)F)cc2)CC1 | 3.24%
CCOC(=O)c1cc(CC)sc1NC(=O)c1cccc(Br)c1 | -2.26%
COc1nc(N)nc(-c2ccco2)n1 | -2.81%
CCCCn1c(CN2CCCCC2)nc2c1c(=O)n(C)c(=O)n2C | -0.499%
CCn1c(S)nc2c(=O)oc3ccccc3c21 | 14%
CC(C)Cc1csc2ncnc(N3CCCC3)c12 | -2.6%
CC(C)CNC(=O)CN(Cc1ccc(Cl)c(Cl)c1)S(=O)(=O)c1ccccc1 | 0.475%
COc1ccc(-n2c(C)cc(/C=C3\C(=N)N4N=C(N5CCOCC5)SC4=NC3=O)c2C)cc1 | -1.66%
C=CCN1C(=O)S/C(=C/c2ccccc2OCc2cccc(C(=O)O)c2)C1=O | -1.43%
C=CCn1c(S)nc2c1c(=O)n(C)c(=O)n2C | -1.1%
O=C(NCC(Cc1ccccc1F)c1ccccc1)c1nc(-c2cccs2)no1 (stereo not shown) | 4.58%
O=C(O)CC[n+]1ccc(-c2cc[n+](CCC(=O)O)cc2)cc1 | -4.84%
COc1cc(C)c(C(C)C)cc1S(=O)(=O)n1cnc(C)c1 | -0.85%
CCN(CC)C(=O)/C(=C/c1ccc2c(c1)OCO2)NC(=O)c1ccc(Br)cc1 | 24.4%
COc1cc(NC(=O)Nc2ccc(Cl)cc2)c(OC)cc1Cl | -1.42%
CC1(c2ccccc2)CC(C)(C)N2C(=O)C(=O)c3cccc1c32 (stereo not shown) | -3.46%
COc1cc(/C=C2\SC(Nc3ccc(C)cc3)=NC2=O)ccc1OC(C)C(=O)O (stereo not shown) | 0.161%
Cc1ccc(C(C#N)NC(=O)[C@H](CC(C)C)NC(=O)c2ccc(-c3ccccc3Cl)cc2)o1 (stereo partly shown) | -6.46% and -1.41%
CCOC(=O)c1c(NC(=O)CN2CCOCC2)sc(C)c1C | -0.999%
COc1ccc(C(=O)O/N=C(\N)Cc2cccs2)cc1OC | -5.01%
N#Cc1c(C(F)(F)F)n2c3c(cccc3c1=N)CCC2 | -5.01%
CCC(Sc1nc2nnc(C)c-2c(N)n1-c1cc(Cl)ccc1C)C(=O)N1CCOCC1 (stereo not shown) | 4.35%
O=C(Nc1ccccc1Br)c1ccc([N+](=O)[O-])cc1 | 1.48%
O=C1OC(c2cncc(Br)c2)=N/C1=C\c1cc(Br)cs1 | -0.617%

Structure (SMILES) | % Inhibition @ 10 uM
CCN(CC)c1ccc(NC(=O)c2ccccc2OC)c(C)c1 | -8.59%
O=c1ccc2ccc(O)c(CN3CCOCC3)c2o1 | 5.01%
CCSc1nc2c(c(=O)n1C)C1(CCCC1)Cc1ccccc1-2 | -7.54%
O=C(O)c1ccccc1/N=c1\c([N+](=O)[O-])c(O)oc2ccccc12 | 7.92%
COc1ccc(C(=O)NCCNC(=O)c2ccc(OC)cc2)cc1 | 2.39%
COc1ccc(CN2CC(C(=O)NCCCN3CCN(Cc4ccccc4)CC3)CC2=O)cc1 (stereo not shown) | 1.62%
CCOC(=O)c1cnc2nc(NCc3cccc(OC)c3)nn2c1O | -7.96%
CC(=O)NCc1nc2ccccc2n1Cc1cc(C)ccc1C | 4.69%
CCc1ccc(S(=O)(=O)Nc2ccc(-c3cn4cccnc4n3)cc2)cc1 | 0.13%
CCOc1ccc(-c2[nH]nc3c2C(c2ccc(O)c(OCC)c2)NC3=O)cc1 (stereo not shown) | -7.16%
COc1cccc(-n2nnc3c(=O)n(CC(=O)NC4CCCC4)cnc32)c1 | -2.16%
O=C1c2cccnc2C(=O)N1Cc1ccc(F)cc1S(=O)(=O)N1CCOCC1 | -5.16%
CCN(CC)CCN1C(=O)C(O)=C(C(C)=O)C1c1ccc(Br)cc1 (stereo not shown) | 12.9%
CC(C)CC(C(=O)NCC#N)c1cccc(NC(=O)NCCCN2CCOCC2)c1 (stereo not shown) | -3.97%
Cc1ccc(Cn2c(SCC(O)CO)nc3c2c(=O)[nH]c(=O)n3C)cc1 (stereo not shown) | 3.45%
O=C(CSCc1ccccc1)Nc1cnc(O)nc1O | 0.273%
Cn1c(=O)c2c(nc(CN3CCOCC3)n2CCCc2ccccc2)n(C)c1=O | -1.43%
C=CCN1C(=O)NC(=O)/C(=C/c2cc(Br)c(OCC(=O)O)c(OC)c2)C1=O | 0.128%
Cc1ccc(/C=C2/C(=N)N3N=C(Cc4ccccc4)SC3=NC2=O)cc1 | 41.7%
O=C(c1nn2c(c1Cl)NC(c1ccco1)CC2C(F)(F)F)N1CCN(Cc2ccccc2)CC1 (stereo not shown) | 3.25%
CCC(C)c1ccc(OCCOc2ccc(C=C3C(=O)N(C)C(=O)N(C)C3=O)cc2)cc1 (stereo not shown) | -4.11%
CC(=O)Nc1ccc(NC(=O)c2cnccn2)cc1 | 2.01%
COc1ccc(-c2csc3ncn(Cc4ccccc4)c(=O)c23)cc1OC | 3.04%
CCNC(=O)c1ccc2c(c1)sc1nc(-c3ccc(CC)cc3)cn12 | -2.97%
O=C(Nc1nnc(S(=O)(=O)N2CCOCC2)s1)C1CCCCC1 | 0.00665%

Structure (SMILES) | % Inhibition @ 10 uM
COC(=O)c1c(NC(=O)c2cc3ccccc3oc2=O)sc2c1CCCC2 | 17%
CCOC(=O)c1c(C)n(-c2ccc(OC)cc2)c2ccc(O)c(CN(C)C)c12 | -1.29%
CCCCCC/C(C)=C(\C#N)C(=O)OCC | -5.51%
Cc1cc(C)nc(/N=C(/NC(=O)Nc2ccccc2)NC2CC(C)(C)NC(C)(C)C2)n1 | -5.3%
CCOc1ccccc1C(=O)N1CCc2cc(OC)c(OC)cc2C1COc1ccccc1OC (stereo not shown) | -3.18%
CC(C)C1Cc2c(sc3nc(SCC(=O)O)n(Cc4ccccc4)c(=O)c23)CO1 (stereo not shown) | -3.33%
Cc1ccc(OCC(=O)Nc2ccc(S(=O)(=O)N3CCOCC3)cc2)cc1 | -2.8%
CC(C)(C)NC(=O)N[C@@H](CC1CCCCC1)C(=O)NCC#N | 1.35%
Cc1ccc(-n2c(C34CC5CC(CC(C5)C3)C4)cn3c4c(=O)n(C)c(=O)n(C)c4nc23)cc1 | 0.503%
COC(=O)c1sc(N2C(=O)c3oc4ccc(F)cc4c(=O)c3C2c2ccc(O)cc2)nc1C (stereo not shown) | 3.73%
CNC(=O)C1CCN(S(=O)(=O)c2c(C)cc(C)cc2C)CC1 | 3.75%
CNC(=O)/C(C#N)=C/c1c(Oc2cc(C)cc(C)c2)nc2c(C)cccn2c1=O | -1.43%
Cc1cccc(CNC(=O)C2CCCN(S(=O)(=O)N3CCC4(CC3)OCCO4)C2)c1 (stereo not shown) | -1.6%
Cn1cc(-c2nnc(-c3ccccc3)o2)c2ccccc2c1=O | -5.48%
COCCN1C(=O)/C(=C\c2ccc(OCC(=O)NC(C)C)cc2)C(C(=O)OC)=C1C | -3.4%
CS/C(=N\C(CC1CCCCC1)C(=O)NCC#N)NS(=O)(=O)c1ccccc1 (stereo not shown) | -3.14%
O=C(CN1C(=O)C2C3C=CC(C3)C2C1=O)N1CCN(C(=O)c2ccco2)CC1 (stereo not shown) | 1.26%
COc1cc2c(cc1/C=C1/NC(=O)N(Cc3ccc(F)cc3)C1=O)OCO2 | 3.62%
COc1cc(-c2nnc3n(CCc4ccccc4)c(=O)c4ccccc4n23)ccc1O | 3.3%
Cc1cccc(C(=O)Nc2cccc(Cl)n2)c1 | -6.85%
Cc1ccc(S(=O)(=O)/N=C(\Nc2cc(C)on2)c2ccccc2)cc1 | -5.22%
Oc1c2c(nc3nnnn13)-c1ccccc1CC21CCCC1 | 1.24%
COC(=O)C1=C(C)N(Cc2ccco2)C(=O)/C1=C\c1cc(C)n(-c2ccccc2Cl)c1C | 1.84%
Cc1ccc(/N=C2\CCCCCN2C)c(C#N)c1 | -2.8%
O=C(CCCCn1c(=O)[nH]c2ccsc2c1=O)NCCc1c[nH]c2ccccc12 | -3.27%

Structure (SMILES) | % Inhibition @ 10 uM
Cc1cc2nc(O)c(O)nc2cc1S(=O)(=O)NCc1ccc(Cl)cc1 | -1.6%
CC(=O)c1ccc(N2CCN(Cc3cccc(Br)c3)CC2)cc1 | -4.4%
O=C(CC(NC1CCCCC1)c1ccccc1O)NC1CCCCC1 (stereo not shown) | -1.91%
Cc1nc2ccccc2c2c1C(=O)N(c1cccnc1Cl)C2=O | -7.33%
O=C(CCc1ccccc1)N1CCC(c2ccccc2)C1 (stereo not shown) | -1.06%
Cc1cc(C)c(S(=O)(=O)N(C)CC(=O)N2CCN(c3cccc(Cl)c3)CC2)c(C)c1 | 1.19%
N#CSc1ccc(N/C=C2/C(=O)NC(=O)N(c3ccccc3)C2=O)cc1Cl | 16.9%
COCc1cc(C)nc2c1C(=O)NC(c1ccc(OC)cc1)N2Cc1ccccc1 (stereo not shown) | 1.84%
Cn1c(=O)[nH]c(=O)c2c1nc(NCCO)n2Cc1ccc(Cl)cc1 | -5.6%
NC(=O)C1CCN(c2cc(-c3ccccc3)nc3nncn23)CC1 | 4.13%
COc1ccc(C2C3=C(O)CCCC3=NC(C)=C2C(=O)N2CCCCC2)cc1O (stereo not shown) | 1.86%
Cc1c(CNC2CCCCCCC2)c(C(=O)O)c(C)n1Cc1ccccc1F | -3.67%
CCCCNC(=O)CCCn1sc2ccccc2c1=O | -3.53%
Cc1ccc(/C=c2\sc3nc(=O)c(C)nn3c2=O)o1 | -1.52%
CCOC(=O)N1CCC(N2C(=O)c3ccccc3C2O)CC1 (stereo not shown) | -2.83%
CCOC(=O)N1CCN(C(=O)C2COc3ccccc3O2)CC1 (stereo not shown) | -7.41%
N#CC1=C(N)OC2=C(C(=O)CCC2)C1c1ccccc1OCc1ccc(Br)cc1 (stereo not shown) | -6.58%
CCOC(=O)c1cc(S(=O)(=O)N2CC3CC(C2)c2cccc(=O)n2C3)cn1C (stereo not shown) | 6.98%
CCCCN(Cc1ccccc1)Cc1ccncc1 | -5.42%
CCOc1ccc2oc(=O)cc(CN3CCOCC3)c2c1 | -3.49%
CCOC(=O)N1CCN(C(=O)CSc2nnc(-c3ccc(Cl)s3)o2)CC1 | -1.59%
Cc1cc(C)nc(N2CCC(C(=O)O)CC2)n1 | 6.7%
